Experimental findings from a collection of fitness landscapes (doi:10.1038/s41467-024-54723-y) are described below.

In all, about 18,000 sequences were measured (“TetR repression strength (sort-seq, GFP reporter)”: median about 0.23, highest 2% from about 0.68 on). The list shows a part of the results.

UniProt P04483, sequence (P04483 whole entry): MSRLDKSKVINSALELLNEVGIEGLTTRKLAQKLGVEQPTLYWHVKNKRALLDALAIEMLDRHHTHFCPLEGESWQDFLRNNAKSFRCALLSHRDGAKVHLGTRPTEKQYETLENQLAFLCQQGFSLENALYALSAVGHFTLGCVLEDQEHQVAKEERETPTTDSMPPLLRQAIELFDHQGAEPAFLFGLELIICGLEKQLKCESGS

The target of the assay is TetR (class B, Tn10) (UniProt P04483). The assay can be described thus: TetR repression strength (sort-seq, GFP reporter) (relative to tetO2 = 1); higher = stronger repression. The following applies: E. coli. Put shortly:
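In LB with 50 µg/mL chloramphenicol, E. coli SIG10-MAX holding a low-copy library with eight randomized operator positions between a constitutive promoter and sfGFP, plus constitutive TetR, grew for 5 h at 37 °C. FACS then sorted 10^6 cells into 13 fluorescence bins for Illumina sequencing of each bin. Repression strength equals the top bin index plus one less the read-weighted mean bin, normalized to the unaltered operator. Values from three independent transformations were averaged when reads were ≥30 in every replicate and the CV was ≤0.5.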
Take TCCCCGTAAGTCTCCGAGA: the TetR repression strength stood at 0.229.

Sequence TCCCTTTAAGTATTCGAGA yielded a TetR repression strength of 0.122.

Take TCCCATTGAGTCAGGGAGA: the TetR repression strength came to 0.0363.

For the sequence TCCCGCAGAGTGGAGGAGA, the TetR repression strength was found to be 0.186.

As for TCCCGATTAGTAAGGGAGA, the TetR repression strength was 0.207.

Take TCCCATTAAGTGAATGAGA: the TetR repression strength worked out at 0.247.

For the sequence TCCCTCTAAGTGGACGAGA, the TetR repression strength came to 0.438.

As to TCCCTGCAAGTTTTGGAGA, the TetR repression strength turned out to be 0.155.

With TCCCCGTAAGTGGGAGAGA, the TetR repression strength was 0.326.

As to TCCCAAAGAGTCGCTGAGA, the TetR repression strength is 0.222.

The sequence TCCCAGTAAGTGTGGGAGA had a TetR repression strength of 0.231.

Sequence TCCCTGTAAGTGCCAGAGA gave a TetR repression strength of 0.259.

In turn, TCCCGTGCAGTTGTCGAGA came in with a TetR repression strength of 0.193.

For TCCCTGTGAGTCTAGGAGA, the TetR repression strength is 0.116.

Take TCCCGCGTAGTTAGCGAGA: the TetR repression strength amounted to 0.304.

Turning to TCCCAATCAGTGGCAGAGA, the TetR repression strength came to 0.433.

Regarding TCCCGCGTAGTGGCCGAGA, the TetR repression strength came out at 0.226.

Sequence TCCCAACTAGTCATCGAGA had a TetR repression strength of 0.434.

For the sequence TCCCGGTCAGTGGTAGAGA, the TetR repression strength was 0.435.

As for TCCCTTGAAGTGTTCGAGA, the TetR repression strength turned out to be 0.0498.

TCCCATGCAGTGTATGAGA: the TetR repression strength came to 0.128.

With TCCCCGGGAGTTCAAGAGA, the TetR repression strength turned out to be 0.362.

TCCCAACTAGTGAGTGAGA: the TetR repression strength worked out at 0.325.

In the case of TCCCGTGTAGTGGAGGAGA, the TetR repression strength came out at 0.326.

In turn, TCCCTACGAGTTAGTGAGA came in with a TetR repression strength of 0.207.

TCCCCACCAGTAGTGGAGA: the TetR repression strength worked out at 0.268.

As to TCCCAGCAAGTATGCGAGA, the TetR repression strength is 0.282.

Take TCCCTAGCAGTGCGCGAGA: the TetR repression strength stood at 0.203.

For TCCCTAAAAGTGGAAGAGA, the TetR repression strength amounted to 0.104.

In turn, TCCCGGGGAGTAGGTGAGA registered a TetR repression strength of 0.194.

For TCCCAGGCAGTGGCGGAGA, the TetR repression strength was found to be 0.204.

Regarding TCCCTATCAGTTCTTGAGA, the TetR repression strength came out at 0.539.

The sequence TCCCGTTTAGTGGCAGAGA displayed a TetR repression strength of 0.248.

On to TCCCATACAGTGTTCGAGA, for which the TetR repression strength was determined as 0.296.

With TCCCCTGGAGTTAGCGAGA, the TetR repression strength was 0.281.

Sequence TCCCATAAAGTTGCAGAGA gave a TetR repression strength of 0.337.

TCCCTTCCAGTAAAGGAGA displayed a TetR repression strength of 0.0273.

For TCCCTTCGAGTACGGGAGA, the TetR repression strength came out at 0.258.

TCCCCGGTAGTCGGTGAGA displayed a TetR repression strength of 0.24.

For TCCCATGTAGTGCTAGAGA, the TetR repression strength was 0.

TCCCTCCTAGTAAGTGAGA gave a TetR repression strength of 0.283.

TCCCGTGTAGTCTGAGAGA gave a TetR repression strength of 0.254.

Consider TCCCGCGGAGTCCAGGAGA, for which the TetR repression strength was determined as 0.177.

The sequence TCCCGCAAAGTAGTAGAGA gave a TetR repression strength of 0.22.

TCCCCGATAGTCCGTGAGA: the TetR repression strength was 0.207.

The sequence TCCCTCTCAGTCTCTGAGA showed a TetR repression strength of 0.237.

With TCCCTCGAAGTTGAGGAGA, the TetR repression strength was determined as 0.116.

The sequence TCCCTGAAAGTCGGTGAGA displayed a TetR repression strength of 0.166.

Take TCCCCGCGAGTAAGGGAGA: the TetR repression strength came to 0.239.

On to TCCCTACAAGTGGCGGAGA, for which the TetR repression strength was determined as 0.136.

In turn, TCCCTTGAAGTCGAGGAGA came in with a TetR repression strength of 0.183.

On to TCCCATGCAGTTGTAGAGA, for which the TetR repression strength came out at 0.495.

TCCCGCGCAGTATAGGAGA: the TetR repression strength is 0.0706.

As for TCCCGCCCAGTGTCTGAGA, the TetR repression strength was found to be 0.505.

TCCCACAGAGTGACTGAGA: the TetR repression strength stood at 0.275.

For the sequence TCCCGTGGAGTTGAGGAGA, the TetR repression strength came out at 0.221.

TCCCACGTAGTTACCGAGA returned a TetR repression strength of 0.155.

Consider TCCCGAATAGTTCGGGAGA, for which the TetR repression strength was found to be 0.329.

Consider TCCCTGTGAGTGGTAGAGA, for which the TetR repression strength was 0.0877.

For the sequence TCCCGCCAAGTGTGAGAGA, the TetR repression strength is 0.0711.

Regarding TCCCCGCGAGTTCCGGAGA, the TetR repression strength is 0.305.

In turn, TCCCAGGGAGTAGATGAGA returned a TetR repression strength of 0.28.

TCCCGAATAGTATGGGAGA displayed a TetR repression strength of 0.351.

As to TCCCGTTTAGTGTTAGAGA, the TetR repression strength amounted to 0.222.

The sequence TCCCGATAAGTGTGAGAGA displayed a TetR repression strength of 0.

TCCCTCATAGTAATAGAGA returned a TetR repression strength of 0.29.

The sequence TCCCAAGGAGTCTATGAGA displayed a TetR repression strength of 0.227.

TCCCCCCTAGTGCGCGAGA registered a TetR repression strength of 0.26.

For the sequence TCCCGAGGAGTTAACGAGA, the TetR repression strength worked out at 0.535.

In the case of TCCCCGTTAGTCCCGGAGA, the TetR repression strength came to 0.0528.

The sequence TCCCAGCGAGTGAAGGAGA displayed a TetR repression strength of 0.614.

In the case of TCCCCTACAGTAGCTGAGA, the TetR repression strength worked out at 0.332.

The sequence TCCCGACTAGTTATCGAGA showed a TetR repression strength of 0.197.

Sequence TCCCATGTAGTCTCGGAGA yielded a TetR repression strength of 0.248.

With TCCCATCTAGTCCTCGAGA, the TetR repression strength worked out at 0.428.

TCCCGAAAAGTGTAAGAGA: the TetR repression strength is 0.3.

Consider TCCCGACGAGTAGCAGAGA, for which the TetR repression strength was 0.486.

Take TCCCCGCGAGTGAGAGAGA: the TetR repression strength is 0.205.

Consider TCCCTGCCAGTGGGGGAGA, for which the TetR repression strength turned out to be 0.174.

Sequence TCCCGGCCAGTTGAAGAGA registered a TetR repression strength of 0.144.

TCCCGCCCAGTCAGGGAGA had a TetR repression strength of 0.292.

TCCCGACCAGTTCGGGAGA registered a TetR repression strength of 0.272.

For TCCCCACGAGTGGATGAGA, the TetR repression strength worked out at 0.382.

As to TCCCGCTAAGTGGTAGAGA, the TetR repression strength worked out at 0.372.

As to TCCCATTAAGTTGCGGAGA, the TetR repression strength was 0.

Regarding TCCCACCCAGTGGACGAGA, the TetR repression strength is 0.339.

Sequence TCCCAGGGAGTCTTGGAGA returned a TetR repression strength of 0.263.

Take TCCCCCGGAGTGCCAGAGA: the TetR repression strength amounted to 0.22.

In turn, TCCCCTATAGTAAGGGAGA had a TetR repression strength of 0.382.

As for TCCCTGCGAGTCCTGGAGA, the TetR repression strength turned out to be 0.207.

The sequence TCCCAAACAGTCGAAGAGA returned a TetR repression strength of 0.296.

TCCCTTCTAGTCGTAGAGA had a TetR repression strength of 0.309.

As to TCCCAGCGAGTTTGGGAGA, the TetR repression strength was 0.162.

In turn, TCCCTACTAGTTGCGGAGA gave a TetR repression strength of 0.299.

TCCCGATCAGTATTTGAGA returned a TetR repression strength of 0.259.

The sequence TCCCGTAGAGTTAGGGAGA registered a TetR repression strength of 0.235.

TCCCGGCTAGTTTCCGAGA returned a TetR repression strength of 0.265.

For the sequence TCCCGATTAGTTGCCGAGA, the TetR repression strength was found to be 0.231.

Turning to TCCCGGATAGTCGGGGAGA, the TetR repression strength is 0.135.

In the case of TCCCGCTTAGTGCGGGAGA, the TetR repression strength amounted to 0.265.

In the case of TCCCATATAGTCTGCGAGA, the TetR repression strength was found to be 0.213.

The sequence TCCCTCTTAGTGGTTGAGA gave a TetR repression strength of 0.152.
